# Reference: paper PMC12136788
# This is one part of the list.
# T1: UNK ZnF1-6 (called full-length) (human, UniProt Q9C0B0 30-357)
# T1 sequence: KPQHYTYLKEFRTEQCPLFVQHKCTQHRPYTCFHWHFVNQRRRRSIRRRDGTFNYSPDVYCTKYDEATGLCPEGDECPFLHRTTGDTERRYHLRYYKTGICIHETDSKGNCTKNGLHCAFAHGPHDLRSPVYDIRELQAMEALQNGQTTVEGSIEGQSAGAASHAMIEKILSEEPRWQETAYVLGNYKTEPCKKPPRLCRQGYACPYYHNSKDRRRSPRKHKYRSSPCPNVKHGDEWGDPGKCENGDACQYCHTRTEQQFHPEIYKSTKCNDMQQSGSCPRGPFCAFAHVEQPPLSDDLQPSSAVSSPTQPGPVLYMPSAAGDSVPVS
# B1: chr8:79641408:79641533:+|CDS|ENSG00000104435|unk|FALSE|unique (ssRNA)
# RNA: GGGAGUUCUACAGUCCGACGAUCCCAGGCUUUUGAGCUGAUCUUGAAGCCACCAUCUCCUAUCUCAGAAGCCCCACGAACUUUAGCUUCUCCAAAGAAGAAAGACCUGUCCCUGGAGGAGAUCCAGAAGAAACUGGAGGCUGCCAACAGAGGAUUGAGCAUCA
# B2: chr13:47936490:47936773:-|three_prime_utr|ENSG00000136143|control|control|control (ssRNA)
# RNA: GGGAGUUCUACAGUCCGACGAUCCAGAGAAGCAUCUUUUUAUUUGUUUUUGAUAUCCUUGUUUGAUGAAACCAGCAUCGUUUUAGAAAAAAUAUCUUUGUUUUAGUAAAAAUGACACAUACUCAUUGAAAAAAUAAACCCCUUCAACAGAGGAUUGAGCAUCA
# B3: chrX:51682015:51682831:-|CDS|ENSG00000283093|control|control|control (ssRNA)
# RNA: GGGAGUUCUACAGUCCGACGAUCCAGUGCCCCCGGGUCCAAGUCGGGGUCGGGAGCCACGCGGCGGCCAAGAGGUGGCUGGGUAGGUGGCGACGGAAGCGCCGCUGGCGGCGGGUCCGGAAGGCGGGCCCCAGAGACCUGCUGCAACAGAGGAUUGAGCAUCA
# B4: chr2:1632960:1633155:-|3pUTR|ENSG00000130508|msi1|FALSE|unique (ssRNA)
# RNA: GGGAGUUCUACAGUCCGACGAUCGUCCAUUUUUUAGGUAUUAGAUAUGGCAGAAAAACCAUUUCCACUAUGCAAAGUUCUUUUAGACGUCAGUGAAAAUCAACUCUCAUACCUCAUGGUCUCUCUUUAAUUGACCAAAACCUUCAACAGAGGAUUGAGCAUCA
# B5: chr17:79834786:79834887:-|CDS|ENSG00000141582|unk|FALSE|unique (ssRNA)
# RNA: GGGAGUUCUACAGUCCGACGAUCAAUGAUGCCGGCCCCCAAAGAGGCUGUGACGGGCAACGGGAUUGGGGGCAAGAUGAAGAUAGUCAAGAACAAGAACAAGAACGGACGCAUCGUGAUCGUGAUGAGCAAAUACAUGGAGAACAACAGAGGAUUGAGCAUCA
# B6: chr19:33301014:33301115:-|3pUTR|ENSG00000245848|unk|FALSE|unique (ssRNA)
# RNA: GGGAGUUCUACAGUCCGACGAUCUCCCUGCGAGGAGGGGAGAAUUCUUGGGGCUGAGCUGGGAGCCCGGCAACUCUAGUAUUUAGGAUAACCUUGUGCCUUGGAAAUGCAAACUCACCGCUCCAAUGCCUACUGAGUAGGGGGCAACAGAGGAUUGAGCAUCA
# B7: chr15:78283234:78283431:-|three_prime_utr|ENSG00000140395|control|control|control (ssRNA)
# RNA: GGGAGUUCUACAGUCCGACGAUCUCUCCAGGCUUAUGCUGCAAAGAGAAUGUACGGAUUGAUCAUGACAUUCCUUACCUUCUUAGGCUUGUUUAAAAGAAAUAUAGCAUUUAUUGUAGCAAAGACUUAAAUUUUGUAGAUACACAACAGAGGAUUGAGCAUCA
# B8: chr7:7607225:7607326:+|3pUTR|ENSG00000164654|msi1|total|mutant (ssRNA)
# RNA: GGGAGUUCUACAGUCCGACGAUCUUUGAGUGAUUUUGAUAUGCUUCACAGAGACAAAUGCUGCCAAAAUAAACAUCGAAGUACCGACAUGAGUUCUGUUCAGCAGGUUGAAAAGUCUGAUUCCGAAAAACUUUCUAAGUUUUGCAACAGAGGAUUGAGCAUCA
# B9: chr11:7467339:7467451:+|3pUTR|ENSG00000170743|unk|FALSE|unique (ssRNA)
# RNA: GGGAGUUCUACAGUCCGACGAUCCCAAGAGAAUACCAAGACAAGCAGGCUGUUCCCUGGAAAAAAUCUAAUGCAAGGAGGGCUAGUUCACAGCAAAUUCACUGCCUCCUCCCAUGCACGUGGUAGAGAGUACCAGUAUCAACACAACAGAGGAUUGAGCAUCA
# B10: ENSG00000120616:stop:overlap|stop_codon|ENSG00000120616|stop_codon|NA|stop_codon (ssRNA)
# RNA: GGGAGUUCUACAGUCCGACGAUCAAUCAGAAAAGCCAGCACUGAACAACAUAGCAGACAACACAGUAGCGAUGGAGGUGACGUAGCUUCCUCCGAGUGGAACUGCAGCCUGGGGACUUGAUUAGGUGCUAUGCAUCAGUAGCACAACAGAGGAUUGAGCAUCA
# B11: chr6:134169319:134169461:-|3pUTR|ENSG00000118515|unk|total|mutant (ssRNA)
# RNA: GGGAGUUCUACAGUCCGACGAUCUGCAUUCCUGAUAAUUGUAUGUAUUGUAUAAAGAACGUCUGUACAUUGGGUUAUAACACCCGUAUAUUUAAACUUACAGGCUUAUUUGUAAUGUAAACCACCAUUUUAAUGUACUGUAAUCAACAGAGGAUUGAGCAUCA
# B12: chr1:155263244:155263345:-|CDS|ENSG00000176444|unk|total|mutant (ssRNA)
# RNA: GGGAGUUCUACAGUCCGACGAUCGUAUCUGACCUCAGAGGCAGAGGAACACCACCAGCUCUUCGAUCUGAUUGAAAGCAUGCCCGAGUAUGAACCAGCUAAGCGGCUGACCUUGGGUGAAGCCCUUCAGCAUCCUUUCUUCGCCAACAGAGGAUUGAGCAUCA
# B13: chr8:94249252:94250309:-|three_prime_utr|ENSG00000164949|control|control|control (ssRNA)
# RNA: GGGAGUUCUACAGUCCGACGAUCUCACCCAGAUGUCCCUUUGAUGGCCGUUGUUGAAGGCCAUUGGGACCAAUAAUCUAUAUUAGAUUGAAUACUUAAGUUAGAUGUGGUUUCCCCCAUUGUAGCAGGGAGCUAGCGUAUUAGCAACAGAGGAUUGAGCAUCA
# B14: chr16:5044585:5044836:-|CDS|ENSG00000153446|control|control|control (ssRNA)
# RNA: GGGAGUUCUACAGUCCGACGAUCGAGUAGCUGGGACUACAGGAGCGUGCCACCAUACCUGGCUAAUUUUUAUAUUUUUUUAGUAGAGACAGGGUUUCAUCAUGUUGCUCAUGCUGGUCUCGAACUCCUGAUCUCAAGAGAUCCCAACAGAGGAUUGAGCAUCA
# B15: chr1:51356092:51356193:-|3pUTR|ENSG00000085832|unk|total|mutant (ssRNA)
# RNA: GGGAGUUCUACAGUCCGACGAUCUUCAGAGAUAAGGAAAAAUAUUUUGCACAGAUUUACUCCACUAUGGAAAAGGGAUGCUGCCGGUUGAACCAUUACCGCCUCAGAUUCGAUCUUUUCCUAACUAAAAAUAUUAAAGCCUCACAACAGAGGAUUGAGCAUCA
# B16: chr14:39032579:39032680:-|3pUTR|ENSG00000100934|msi1|total|mutant (ssRNA)
# RNA: GGGAGUUCUACAGUCCGACGAUCUGAUUUUAUAAUGGUAAUUUUCAUGAUGAUAAUGUUUUUGGUUAUUUGGAAAGACCGUUCCGAGAUGAAAGGUUUUUUUGGGUAACAAUCCCGCAGCUGACAAAAAAUGUGAAAUUUCCACAACAGAGGAUUGAGCAUCA
# B17: chr7:17792983:17793084:-|3pUTR|ENSG00000071189|msi1|FALSE|unique (ssRNA)
# RNA: GGGAGUUCUACAGUCCGACGAUCGACAUGCCUUAGGUAACUGCAGAAAUAGCAAAUUAAAUGAUUAAUGAGCUUAUUAGUCAUAGUAAACAUACAGAUUCCUAAUUCUAUGACAGUGUACAUAUAUGAAAAUAAAUGAUGAAACAACAGAGGAUUGAGCAUCA
# B18: ENSG00000166181:stop:overlap|stop_codon|ENSG00000166181|stop_codon|NA|stop_codon (ssRNA)
# RNA: GGGAGUUCUACAGUCCGACGAUCGUGGGAAAUAUAGCAGCAAUUUGGGCAACUUUAAUUAUGAGAGGAGCCUUCAGGGGAAGUAGAGGUGGCCGAGGUUGGGGCACACGAGGAAAUCGUAGUCGGGGAAGACUCUACUGAAUACAACAGAGGAUUGAGCAUCA
# B19: chr1:67411267:67411372:-|3pUTR|ENSG00000142864|unk|total|mutant (ssRNA)
# RNA: GGGAGUUCUACAGUCCGACGAUCAACUCAUUUCCAAACAUGUACCAUGUUUUAUAAACCUCUUGAUUUCCAGCAACAUACUACCGAAAACACCUGCUACUCAAAACACAACUUCUCAGUGUCAUCCAUUGCUGUCGUGAGAGACAACAGAGGAUUGAGCAUCA
# B20: chr8:102207567:102207681:-|3pUTR|ENSG00000048392|unk|FALSE|unique (ssRNA)
# RNA: GGGAGUUCUACAGUCCGACGAUCUAUUAAUUGCAAUGAUGUUGUAAUAAAAUACUCUCAUUUCCUUAAAAUAAUUGUGAUUCUAGGUCCUAGGAUCUAGAAUUAGAUCUUUGUAUUUUUAAUGCUUAGGGGAAGAAUAUAAGUCAACAGAGGAUUGAGCAUCA
# B21: chr1:31365252:31365939:-|three_prime_utr|ENSG00000121769|control|control|control (ssRNA)
# RNA: GGGAGUUCUACAGUCCGACGAUCAUCCAGUUCCAGUUCCCAUGGUGUAUGUGGUUUUUUUUUUUUUUUUUUAACUGCACUCAUAGGGUGCUCUGAGGUCAAUAAAGCAGAGCCAAGGCCACCCAGUUGCCUUUUUGCCUUUGGCAACAGAGGAUUGAGCAUCA
# B22: chr20:1375301:1375603:-|CDS|ENSG00000088832|control|control|control (ssRNA)
# RNA: GGGAGUUCUACAGUCCGACGAUCGGUAUGCUCUCUCAUUUGUUUUGUUUUGCUUUCUAGUAUUUACCUUUUAUAUUUUUUUAUAGGUGGCAUAUUUAUACGGUUCAAAAAUAAAAAAAGUGAAAAGUCUCACCCUCAUGCCAUCAACAGAGGAUUGAGCAUCA
# Biological target: T1, UNK ZnF1-6 (called full-length)
# Assay: nsRBNS (natural sequence RNA bind-n-seq); RBNS binding buffer (assumed for nsRBNS): 25 mM Tris pH 7.5, 150 mM KCl, 3 mM MgCl2, 0.01% Triton X-100, 500 ug/ml BSA, 20 U/ml SUPERase-In, 4 C; UNK is unkempt and MSI1 is Musashi-1; names of the RNAs are library labels; protein concentration not given here; high values mean tight binding
row,Binder,binding signal
1,B1,0.628 enrichment R
2,B2,5.18 enrichment R
3,B3,6.11 enrichment R
4,B4,0.915 enrichment R
5,B5,0.763 enrichment R
6,B6,4.16 enrichment R
7,B7,13.8 enrichment R
8,B8,0.348 enrichment R
9,B9,0.613 enrichment R
10,B10,0.62 enrichment R
11,B11,0.542 enrichment R
12,B12,0.48 enrichment R
13,B13,1.75 enrichment R
14,B14,2.13 enrichment R
15,B15,0.387 enrichment R
16,B16,0.376 enrichment R
17,B17,1.33 enrichment R
18,B18,6.77 enrichment R
19,B19,0.367 enrichment R
20,B20,0.471 enrichment R
21,B21,1.85 enrichment R
22,B22,3.7 enrichment R
